For 69 compounds, z-score results are on record in PubChem BioAssay AID488969 (Vanderbilt High Throughput Screening Facility, 2010).

Each structure is given as a SMILES string. Over roughly 110,000 compounds, “z-score” has its median near -0.1; the highest 2% begin near 2. The list shows a part of the results. Calls of active or inactive are those of the source.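 How the source made its calls: active means z-score in the third read window above 3 or below -3; inactive means the rest.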

The test deals with Metabotropic glutamate receptor 8 (Rattus norvegicus) (UniProt P70579). In words: mGluR8 Gi/Go-coupled signaling modulation – cell-based, rat, thallium flux, HTS, primary screen (AID 488969). To be noted: HEK293 rat mGluR8, GIRK (G protein-gated inwardly rectifying potassium channel) thallium flux, FluoZin2; at 10 µM; stronger effect = higher value; submaximal glutamate (EC20) added with thallium.
UniProt P70579, sequence (P70579 whole entry, looked up): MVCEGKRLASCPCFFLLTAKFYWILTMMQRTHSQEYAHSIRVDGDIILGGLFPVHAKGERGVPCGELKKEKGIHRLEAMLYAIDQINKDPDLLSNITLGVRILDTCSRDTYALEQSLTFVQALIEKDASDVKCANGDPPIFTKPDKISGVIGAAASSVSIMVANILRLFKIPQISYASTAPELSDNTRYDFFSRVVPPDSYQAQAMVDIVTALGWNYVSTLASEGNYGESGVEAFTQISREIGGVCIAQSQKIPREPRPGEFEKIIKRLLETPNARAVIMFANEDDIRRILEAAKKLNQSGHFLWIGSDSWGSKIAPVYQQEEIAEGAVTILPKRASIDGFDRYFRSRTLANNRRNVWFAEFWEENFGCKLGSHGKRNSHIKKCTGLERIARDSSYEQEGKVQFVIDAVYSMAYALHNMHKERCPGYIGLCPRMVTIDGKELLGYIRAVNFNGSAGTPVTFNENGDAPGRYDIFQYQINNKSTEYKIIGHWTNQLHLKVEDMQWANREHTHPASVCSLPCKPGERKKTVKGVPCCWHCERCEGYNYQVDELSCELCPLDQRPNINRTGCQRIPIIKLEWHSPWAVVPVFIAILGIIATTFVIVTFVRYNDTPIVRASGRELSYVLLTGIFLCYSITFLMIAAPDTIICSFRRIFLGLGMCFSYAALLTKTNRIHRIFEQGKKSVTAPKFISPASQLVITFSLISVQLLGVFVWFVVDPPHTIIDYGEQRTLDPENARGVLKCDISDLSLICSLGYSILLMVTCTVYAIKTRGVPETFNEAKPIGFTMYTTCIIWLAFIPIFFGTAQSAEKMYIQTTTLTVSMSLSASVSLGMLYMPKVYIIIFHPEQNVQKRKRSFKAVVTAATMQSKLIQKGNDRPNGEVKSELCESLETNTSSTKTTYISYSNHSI
Take `N#CCSc1ncnc2c1cnn2CCO`: the z-score amounted to 0.841.
The figure for `CCC(C)c1ccc(NC(=O)C/C(C)=N/NC(=O)c2cnccn2)cc1` (centres undefined) is -0.178.
In the case of `COc1ccccc1N1CCN(C(=O)c2ccccc2Oc2ccccc2)CC1`, the z-score is -0.0128.
The figure for `CCCCC(=O)NN(C)c1nc(-c2ccccc2)nnc1C(F)(F)F` is -0.236; for `COc1ccc(-c2cc(C(F)(F)F)n3nc(C(=O)NCCCn4ccnc4)cc3n2)cc1` it is -0.476.
In the case of `COc1c(C)cccc1C(=O)Nc1ccc(N2CCOCC2)c(Cl)c1`, the z-score is -0.326.
Regarding `CN(C)c1ccc(C2CC(c3ccccc3)=Nc3nc(-c4ccccc4)cn32)cc1` (centres undefined), the z-score was -0.176.
With `O=C(Cc1cc(=O)[nH][nH]1)N/N=C/c1c(Cl)cccc1Cl`, the z-score was -0.452.
Take `CCCc1nnc(NC(=O)c2cccc(OC)c2)s1`: the z-score was -0.102.
The figure for `Cc1ccc(C)c(NC(=O)C(=O)NCc2ccccn2)c1` is -0.0364; for `CC1(C)OC2OC(COC(=O)c3ccc([N+](=O)[O-])cc3)C3OC(C)(C)OC3C2O1` (centres undefined) it is -0.286.
For the compound `Cc1cc(C(=O)Nc2ccccc2N2CCOCC2)ccc1[N+](=O)[O-]`, the z-score was -0.321.
The figure for `COC(=O)c1cc2c(ccn2-c2ccc(F)cc2)n1Cc1ccc(OC(C)=O)cc1` is 1.2; for `CCOC(=O)/C(=C\c1ccc([N+](=O)[O-])cc1)C(=O)c1cc(C(C)=O)c(Nc2ccccc2)s1` it is -0.156.
Turning to `CCC(C)Oc1nc(C)cc(C)c1S(=O)(=O)c1ccccc1C` (centres undefined), the z-score was -0.0966.
For the compound `CCOc1ccccc1N(CC(=O)NC1CCCCC1)C(=O)CCCC(=O)Nc1ccccn1`, the z-score is -0.541.
For the compound `Cc1ccc(OC(=O)C(C)c2cccc(C(=O)c3ccccc3)c2)cc1` (centres undefined), the z-score is -0.0213.
`O=C(CSc1nnc2scc(-c3ccc(F)cc3)n12)NCc1ccco1`: the z-score is -0.14.
Take `CC(Sc1nc(-c2ccccc2)cc(C(F)(F)F)n1)C(=O)Nc1sc2c(c1C#N)CCC2` (centres undefined): the z-score was -0.136.
As to `COc1ccc(-n2nc(C(=O)NCC(=O)NCc3ccco3)c3ccccc3c2=O)c(OC)c1`, the z-score came out at 0.212.
With `Cc1ccc(NS(=O)(=O)c2ccc(C(=O)N3CCN(c4ccccn4)CC3)cc2)cc1`, the z-score was -0.241.
The value for `CC1(C)C(=O)NCCN1C(=O)CCC(=O)O` was 0.302; that for `Cc1ccc(-c2noc(CSc3nnc(Cc4ccccc4)n3-c3cccc(C)c3)n2)cc1` was -0.182.
The figure for `O=C(CNC(=O)c1ccco1)Nc1cc(Cl)ccc1N1CCOCC1` is 0.243; for `COC(=O)CCc1sc(Nc2ccccc2)nc1-c1ccc(OC)cc1` it is -0.13.
As for `CCOc1ccc(-c2c(C(=O)N/N=C/c3ccc(OC(C)C)cc3)nnn2-c2nonc2N)cc1`, the z-score is -0.219.
For the compound `CCCN(CCC)CCCNC(=O)c1cc2c(=O)n(C)c3ccccc3c2n1C`, the z-score was active: 4.
In turn, `CC(=O)Nc1ccc(/C(C)=N/NC(=O)CN(c2ccccc2Br)S(C)(=O)=O)cc1` gave a z-score of 0.622.
The figure for `O=C(Oc1cc(=O)n2ccccc2n1)c1ccccc1` is -2.09.
In turn, `CC(=O)Nc1cc(C(=O)c2ccccc2)ccc1N1CCOCC1` came in with a z-score of 0.189.
The value for `Cc1cccc(C(=O)NC(=S)Nc2ccccc2C(F)(F)F)c1` was active: 3.38; that for `O=C(Nc1ncc2c(n1)CC(c1ccco1)CC2=O)c1ccc(Cl)cc1` (centres undefined) was -0.777; that for `COc1cc(NC(=O)c2cc(-c3cccnc3)nc3ccc(C)cc23)c(OC)cc1Cl` was -1.58.
For `CCOC(=O)c1sc(NC(=O)c2cccs2)cc1C`, the z-score was -0.119.
`O=C(c1ccco1)N1CCN(C(c2ccc(Cl)cc2)c2nnnn2CC2CCCO2)CC1` (centres undefined): the z-score is 1.13.
The figure for `CCN1CCN(C(C(=O)NC2CCCC2)c2ccc(Cl)cc2)CC1` (centres undefined) is 0.0777; for `CCOC(=O)Cc1c(C)c2ccc(N(CC)CC)cc2oc1=O` it is -1.32.
The figure for `COc1cc(/C=N/n2c(SC)nnc(C(C)(C)C)c2=O)ccc1O` is -0.497; for `O=C(Nc1ccccc1)N(Cc1cccs1)C1CCCC1` it is -0.492; for `CCOCCCNC(=S)N1C2CCC1CC(NC(=O)NC1CCCCC1)C2` (centres undefined) it is -0.286.
`COc1ccc(Cc2nc3ccc(S(=O)(=O)N4CCOCC4)cc3[nH]2)cc1`: the z-score was -0.193.
The compound `CCOC(=O)N1CCN(C(=O)Nc2ccc3nccnc3c2)CC1` registered a z-score of 0.657.
The value for `O=C(Oc1ccc2cc(Br)ccc2c1)c1cccnc1` was -0.445; that for `CCC(C)c1ccccc1NC(=O)COC(=O)c1ccc(N2CCCC2)c([N+](=O)[O-])c1` (centres undefined) was -0.0795; that for `Cc1nc(SCc2ccc(O)c([N+](=O)[O-])c2)n[nH]1` was -0.228.
As for `CC(SCc1ccccc1)C(=O)N/N=C/c1cc2c(cc1Br)OCO2` (centres undefined), the z-score is -0.397.
The compound `CCC1S/C(=C(\C#N)C(N)=O)N(c2ccc(F)cc2)C1=O` (centres undefined) came in with a z-score of 0.084.
In the case of `Cc1nc(-c2ccccc2)sc1-c1nc(-c2ccccc2)ncc1S(=O)(=O)c1ccccc1`, the z-score was -0.0308.
In the case of `O=S(=O)(c1ccc2c(c1)OCCO2)N(Cc1ccc(F)cc1)Cc1nnc(-c2cccs2)o1`, the z-score is -0.203.
Take `CN=C1S/C(=C\c2cc(C)n(-c3ccccc3F)c2C)C(=O)N1C`: the z-score is 1.87.
Consider `CCCc1nn2c(=O)c(C(c3ccc(C)cc3)c3c(O)nc4sc(CCC)nn4c3=O)c(O)nc2s1`, for which the z-score is -0.14.
Regarding `Cc1cccc(NC(=O)CSc2nnc(-c3ccco3)o2)c1`, the z-score was -0.435.
Turning to `CCCCOc1ccccc1C1NC(=O)NC(C)=C1C(=O)OCCOC` (centres undefined), the z-score is -0.347.
As for `CN(CC(=O)NC1CCCCC1)S(=O)(=O)c1cccc2nsnc12`, the z-score is -0.48.
Take `CCCCNC(=O)Cn1cnc2sc(C(=O)OCC)c(C)c2c1=O`: the z-score was -0.518.
Consider `Cc1onc(-c2ccccc2)c1C(=O)N1CCN(C/C=C/c2ccccc2)CC1`, for which the z-score is -0.328.
On to `CSc1ncccc1-c1nc2ccccc2[nH]1`, for which the z-score was -0.0907.
Consider `COc1cc(NC(=O)c2ccc(Br)o2)c(C(=O)O)cc1OC`, for which the z-score is -0.481.
On to `CCOC(=O)CCSc1nc(C)c2cc(OC)ccc2n1`, for which the z-score is -0.0662.
Turning to `Cc1cccc(C)c1NC(=O)CNC(=O)CCC(=O)c1cccs1`, the z-score was -0.232.
The compound `O=C(CC1NC2CCCCC2NC1=O)Nc1cccc(C(F)(F)F)c1` (centres undefined) came in with a z-score of 0.497.
The value for `Cc1c(C(=O)OC(C)C)[nH]c2c1C(=O)CC(C)(C)C2` was -0.214; that for `Cc1cc(C)cc(NC(=O)C(=O)NCc2ccccn2)c1` was -0.179.
In the case of `OC(COc1c(Cl)cc(Cl)cc1Cl)CN1CCCCC1` (centres undefined), the z-score is -0.0959.
On to `O=C(CN1CCN(Cc2ccccc2F)C1=O)NCCN1CCOCC1`, for which the z-score turned out to be 0.267.
On to `CCOC(=O)COc1ccc(S(=O)(=O)Nc2ccc(C)cc2)cc1`, for which the z-score is -0.352.
As for `Cc1nnc(SCC(=O)Nc2cccc(C(F)(F)F)c2)[nH]c1=O`, the z-score is -0.424.
`Cc1cc(C)cc(Oc2nn[nH]n2)c1`: the z-score was -0.155.
For `CCC(C)NC(=O)C1CCCN1S(=O)(=O)c1ccc(Cl)cc1` (centres undefined), the z-score was -0.369.
